From PubChem BioAssay (NCATS)
Inconclusive results, whose numbers are uncertain, are shown with a selection of clear calls. Potencies of inconclusive entries are left out as doubtful fits. The source made the active and inactive calls. Calls follow the shape of the dose curve; as a rule, active = well fitted curve in the direction sought with a large enough effect; inconclusive = small, poorly fitted or top-dose-only effect, or another doubt; inactive = no such curve, though single readings can be large; an effect the other way counts as inactive or inconclusive.

Key:
[1] = BET inhibitor-based combinations targeting novel dependencies in MECOM-rearranged (r) AML: OCI-AML3 cell line (AID 2202232); conditions: CellTiter-Glo luminescence, 48 h; Potency: OCI-AML3 viability; viability (% of control): at 46 µM (top of the series); also: nearly all actives have a fitted effect of over 35% in size
Method in brief: (§1)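 Each compound was tested at eleven concentrations on cells seeded at 500/well. After two days' incubation, ATP-based luminescence reported viability; responses relative to DMSO and blank wells yielded AUC and cell-line-centred Z-AUC.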

[2] = BET inhibitor-based combinations targeting novel dependencies in MECOM-rearranged (r) AML: MV-4-11 cell line (AID 2202233); conditions: MV-4-11 AML viability, CellTiter-Glo luminescence, 48 h; series mostly up to 46 µM; also: nearly all actives have a fitted effect of over 45% in size
Method in brief: (§2)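 First, 500 cells per well were seeded; next, drugs were pinned as 11-point doses; then plates sat 48 hr in the incubator; finally CellTiter-Glo was added and luminescence read, with AUC and Z-AUC computed.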

[3] = BET inhibitor-based combinations targeting novel dependencies in MECOM-rearranged (r) AML: UCSD-AML1 cell line (AID 2202235); conditions: UCSD-AML1 AML cells viability, CellTiter-Glo, 48 h; viability (% of control): at 46 µM (top of the series); also: nearly all actives have a fitted effect of over 40% in size
Method in brief: as §2

[4] = BET inhibitor-based combinations targeting novel dependencies in MECOM-rearranged (r) AML: AML-191 cell line (AID 2202236; also: nearly all actives have a fitted effect of over 35% in size)
Method in brief: as §1

[5] = BET inhibitor-based combinations targeting novel dependencies in MECOM-rearranged (r) AML: HNT-34 cell line (AID 2202234); also: nearly all actives have a fitted effect of over 35% in size
Method in brief: as §2

[6] = BET inhibitor-based combinations targeting novel dependencies in MECOM-rearranged (r) AML: AML-194 cell line (AID 2202237; also: nearly all actives have a fitted effect of over 40% in size)
Method in brief: as §1
Potency is read from the fitted curve at half-maximal effect; tags tell the direction and shape of the fitted curve.

| Compound | Potency [1] | Potency [2] | Potency [3] | Potency [4] | Potency [5] | Potency [6] |
| --- | --- | --- | --- | --- | --- | --- |
| C[C@@H](Nc1cc(F)cc(F)c1)c1cc(C(=O)N(C)C)cc2c(=O)cc(N3CCOCC3)oc12 | active: 5.9 µM | inconclusive [inhibitor, partial curve] | inconclusive [inhibitor, partial curve, poor fit] | – | – | – |
| O=C(O)CCCCN(CCc1ccccc1OCc1ccc(CCc2ccccc2)cc1)Cc1ccc(C(=O)O)cc1 | inconclusive [inhibitor, partial curve, poor fit] | inconclusive [inhibitor, partial curve, poor fit] | inconclusive [inhibitor, full curve, poor fit] | inactive | – | – |
| O=C1NC(=O)[C@@H](c2cn3c4c(cccc24)CCC3)[C@@H]1c1c[nH]c2ccccc12 | inconclusive [inhibitor, full curve, poor fit] | inconclusive [inhibitor, full curve, poor fit] | inconclusive [inhibitor, full curve, poor fit] | – | – | – |
| O=C(NCC(=O)N1CCCC1)Nc1ccc2cnccc2c1 | inconclusive [inhibitor, full curve, poor fit] | inconclusive [inhibitor, partial curve, poor fit] | – | – | inactive | inactive |
| CC1Oc2cc(cnc2N)-c2c(nn(C)c2C#N)CN(C)C(=O)c2ccc(F)cc21 (stereo not drawn) | inconclusive [inhibitor, partial curve, poor fit] | inconclusive [inhibitor, single point] | – | inconclusive [inhibitor, full curve] | inconclusive [inhibitor, partial curve, poor fit] | inconclusive [inhibitor, full curve] |
| Cn1c(=O)c2[nH]cnc2n(C)c1=O | inactive | inactive | inactive | – | – | inactive |
